Measurements taken from the supplement of paper PMC10126150.
Values marked as one replicate rest on one cluster of the flow cell; about a third of the high ones do not repeat.

Tested on: ATP
Assay: switch fluorescence ratio, 500 uM ATP over buffer (Cy3 cluster intensity, sum of 5 cycles each) (fold (ratio)); higher = stronger signal-on switching upon ATP binding; sequences stand for … in TCGTCGGCAGCGTCAGATGTGTATAAGAGACAGTTTTTTTTTTTTTTTTTTTTTTTTT…TC
Details: aptamer strand: ATP DNA aptamer (quencher-CACCTGGGGGAGTATTGCGGAGGAAGG + anchor), 100 nM annealed; ATP concentration: 500 uM; one replicate
Summary of the method: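 Per cluster, summed Cy3 intensity from the target cycles was divided by that from the buffer cycles to give the fluorescence ratio, then averaged per switch-domain sequence. Clusters outside 100-1000 RFU were excluded. The Cy3-labelled switching-strand clusters, on a modified Illumina MiSeq flow-cell, were annealed to 100 nM quencher-labelled ATP aptamer and imaged in selection buffer, then after 15 min with 500 uM ATP at 22 °C, for five cycles with NaOH stripping and re-annealing between them.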
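Also: ATP exposure 15 min at 22 °C before imaging.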

Sequence | switch fluorescence ratio
TAGCAATTTA | 1.27
TACGTACTAT | 1.47
GGTGTGTCTT | 0.983
AGAAGGGTCC | 1.06
TCGCTCAATC | 1.82
AAGCGGATCT | 0.997
ATACCATTGT | 0.988
GGTGACTAAG | 0.996
TTGAGGAGCT | 0.98
GTAGGATGGC | 0.964
GGCGGGCATA | 1.01
CCTAGTCGAT | 1.13
TGCAGAAAAG | 0.984
CTGCCAGCGG | 1.01
TTAACGGTCA | 1.02
GAGCTTATCA | 1.03
TCAATATGCC | 1.03
GCCGTTGTTA | 0.989
GGGCTAACCC | 0.967
ATGTCGGA | 1.03
TTGGAATCAT | 0.964
GGACCGTGCG | 1.02
TTTGATCTCC | 1.03
TCGAGCGTCA | 1.02
CGTGATATT | 1.08

Sequence | switch fluorescence ratio
TTCTACTTCG | 0.996
ACTATCAATG | 1.01
CAATAGCTTG | 1.03
AGGGGTTCTC | 1.05
AGCCAGACCG | 1.01
CGCCTTATGT | 0.919
TTTGTAAACA | 2.03
CCGTGCTGGT | 1.04
TCTTTATCTT | 1.02
TCATTCCAGG | 1.15
GGATCATATG | 1.01
TTTACAAGCT | 0.997
CGATGTATTA | 0.974
TCCAATTTGG | 1.02
CGAATAAGCA | 1.02
AGCCACGCTT | 0.962
TGTGGGACTC | 1.1
TCCATTAGCT | 1.06
GATGAGAGAA | 0.982
GGACGCGCTG | 0.966
TAGAGGTGGT | 0.975
TAGTCATTGC | 1.03
TGTCCCTCGC | 1.11
CACCAGGGCG | 1.15
GATGTCATTG | 0.989

Sequence | switch fluorescence ratio
TACGTTCTTT | 1
CGGTGGGGCT | 0.992
CATTATGATC | 0.982
ATTCGTGGCG | 0.871
CACCTC | 1.1
ATAGCTTTTG | 1.02
TGTTCAAACG | 0.997
ACGAACCGAG | 1.45
GGTAAATTTG | 0.987
GGGTAGGCTC | 1.03
CTAGCGCTCA | 0.992
CTTGCTTGTC | 1.03
AGACTGTGG | 0.968
CCGCCAGGAA | 0.989
GGGTGGAATG | 0.994
TGTTAGTTCG | 0.973
TGATCATTGT | 1.04
AAAAGACATT | 1.05
CTCTGCAAGT | 7.48
CACATTACGC | 1.35
TTATCAGAGG | 1.05
ATTTATTGCA | 0.957
ATTAGTTCTT | 1
TTTCAGATTA | 1
GAAACGCAGG | 0.97

Sequence | switch fluorescence ratio
TTCTGGCGTT | 1.07
TAAAGCGCAA | 2.43
ACACTGATTC | 1.05
TTATGCTCAT | 0.979
AGCGAGCCCA | 0.965
CGTTCGGGCG | 1.07
CGGCAGATCC | 1.09
TTCACCGGAT | 1.04
GATATGAAGC | 1.01
ACCGGTGCTC | 1.12
GGAAAGTCTT | 0.977
CTCGAGGGAC | 1.08
TCGTTGGGCT | 1
GCTCGTATTG | 0.995
GTGTGGGCGT | 0.989
CCTAGCGGCC | 1.48
AGTTAGAACA | 1.06
TCCGTGCCGT | 1.11
TCCTGTCAAG | 1.02
TAAGGAAACC | 1.02
AAGTAGACTC | 1.35
TTCTTTGCGG | 1.03
TGATGCACTT | 1.14
GATAGCGCTC | 0.947
ATACACGTTT | 0.97

Sequence | switch fluorescence ratio
GAACGGCGGC | 0.999
ATTTCTTACG | 1.01
TCGATCGGTG | 0.986
AAAGTCGCAC | 1.07
ATGGGGCCGG | 0.97
GTCTGTGGCG | 1.01
AACGGTTCAA | 1.01
ATCTGGGGGC | 1.05
TTCATGATTA | 0.993
TTGAACGTAG | 0.977
GGACTAACGT | 1.23
GATGGAAGGA | 1.03
AAAGCACTGT | 1.07
GGTTGCACCA | 1.03
TGCTTGGCAA | 1.06
AGATCTGAGG | 1.03
AACCAAGTTC | 1.03
TTGGAATTA | 1.01
TAGGCATCTG | 0.97
TTGAGCCGGG | 1
CGTGGAAGGT | 0.959
TACAACGACG | 1.04
GGCATGCAGT | 1
AGGTAACATA | 1.02
TATCTGGTGG | 1.03

Sequence | switch fluorescence ratio
CTGCTGCCTG | 0.991
GGTCATTAGT | 1.01
AGATTAAAA | 1.02
AAACTCGTCT | 1.02
GCGTGATATA | 1.01
TACCCGGGAT | 1.02
CGTACTCGGA | 1.01
CGGAGAGGTG | 1.01
CAGGCGCCTA | 1.01
CTTGGTGAGG | 0.979
TGGGCACCGA | 1.07
CGCGTATCC | 1.07
CTGGAACAGG | 1.06
GTAGCCCCTC | 1.07
ACACGATAGG | 1.07
TACTGAACTT | 1.13
GAACTGTTAG | 0.998
TTCGGAGC | 1.27
GCACTCTGAT | 1.05
AGCCAACTCC | 2.11
GAGAAATTAG | 0.997
AAAGTCGAAA | 0.971
TACGGCCCCC | 1.04
TTGGCAGGAT | 1.18
GGTTACACGG | 0.976

Sequence | switch fluorescence ratio
TTCCCACGCA | 5.55
TCCCTGATCT | 1.05
ACTGTGAGGT | 0.996
TGGCCGTCTG | 1.07
CCGGAAATAG | 1.13
GCAGGACTGA | 1.01
GATTCAGATG | 0.924
AAGCAGAAC | 2.31
TAATTTAGC | 1.06
TCTAGACTTC | 0.984
ATCGGTCGGC | 0.995
CCTCGATCAG | 1.04
TCATTCGTAT | 1.01
CTTTTGGGTG | 1.03
GCCAGGACTT | 1.02
GAGTTGATTC | 1.02
GGCCCTAGTG | 1.08
TGATTATTGT | 1.07
GTGGATCACG | 1
AACGCGTTAG | 0.985
TCATTTCGGT | 0.982
TCTCGGTATT | 0.987
TCCGTAGGGA | 1.01
TTAAAGGTTG | 0.982
GTGCCAAAGA | 0.994

Sequence | switch fluorescence ratio
ATGCATTGGG | 0.971
AGTGGGCCGA | 0.928
TCCTCGTTCA | 1.07
AAAGACGCCT | 1.11
ACCCTAACCG | 1.02
CATCTTAAT | 1.01
TAGGCCACGG | 1.02
TCGAAACACT | 1.02
GTTCGGATGT | 0.987
GATAATCGGG | 0.978
AGAAATGGGC | 1.07
GCCAGACACT | 1.02
TGAGGCTCTT | 0.989
TGAGCGGTTT | 1.02
GTCGACCTTT | 0.986
GCACAATTTG | 0.977
TTAGGTACAG | 1.02
TGACTGCATG | 1.07
TTATAAGCGC | 0.942
CCTTTGTTAA | 1.1
AGGCGCGCTA | 1.03
AACTTCCCCT | 1.21
ACTCGACTAG | 1.01
ATCTTCCTTA | 1.11
TTGATACTGT | 1.04
